Test systems include 501Mel; A101D; A2058; A375.
Assay in all cases: cell count relative to DMSO control; melanoma cells; higher = more viable cells
Holding throughout (conditions): library dose: standard library concentration; 72 h

Molecules are shown by their SMILES. Some of the results follow. Single values are uncertain, as repeats are few or missing.
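Note: cells treated in 1,536-well plates, then fixed and DAPI-stained, with nuclei counted from automated high-throughput microscope images.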

Turning to `Nc1nc(F)nc2c1ncn2[C@@H]1O[C@H](CO)[C@@H](O)[C@@H]1O` [fludarabine] + O=C(Nc1ccccc1)c1cc([N+](=O)[O-])ccc1Cl [GW9662] (first compound 1 µM, partner dose 10 µM), the cell count was determined as 0.308% in the test with 501Mel, 71.8% in the test with A101D, 76.8% with A2058 and 45.9% with A375.

As for `Nc1ncn([C@H]2C[C@H](O)[C@@H](CO)O2)c(=O)n1` [decitabine] + O=c1cc(-c2cccc3c2Sc2ccccc2S3)oc(N2CCOCC2)c1 [KU55933] (first compound 0.5 µM, partner dose 5 µM), the cell count in the test on 501Mel worked out at 71.8%; in the test on A101D, 84.8%; in the test on A2058 it was 67.1%; with A375 it was 140%.

Turning to `Nc1nc(F)nc2c1ncn2[C@@H]1O[C@H](CO)[C@@H](O)[C@@H]1O` [fludarabine] + O=C1NC(=O)/C(=C/c2ccc(-c3ccc(F)cc3O)o2)S1 [AS252424] (first compound 1 µM, partner dose 5 µM), the cell count worked out at 1.89% in the test on 501Mel, 94.1% with A101D, 94.5% in the test on A2058 and 34.4% in the test with A375.

In the case of `CC(=O)O[C@@]12CO[C@@H]1C[C@H](O)[C@@]1(C)C(=O)[C@H](O)C3=C(C)[C@@H](OC(=O)[C@H](O)[C@@H](NC(=O)OC(C)(C)C)c4ccccc4)C[C@@](O)([C@@H](OC(=O)c4ccccc4)[C@H]21)C3(C)C` [Docetaxel] + c1cc(-c2cnn3cc(-c4ccc(OCCN5CCCCC5)cc4)cnc23)ccn1 [Dorsomorphin] (first compound 0.0005 µM, partner dose 2 µM), the cell count was determined as 38.4% in the test on 501Mel, 57.3% in the test on A101D, 6.71% in the test with A2058 and 50.5% in the test with A375.

As to `CO[C@H]1C[C@@H]2CC[C@@H](C)[C@@](O)(O2)C(=O)C(=O)N2CCCC[C@H]2C(=O)O[C@H]([C@H](C)C[C@@H]2CC[C@@H](OCCO)[C@H](OC)C2)CC(=O)[C@H](C)/C=C(\C)[C@@H](O)[C@@H](OC)C(=O)[C@H](C)C[C@H](C)/C=C/C=C/C=C/1C` [everolimus] + O=S(=O)(c1ccccc1)N(CC(F)(F)F)c1ccc(C(O)(C(F)(F)F)C(F)(F)F)cc1 [T0901317] (first compound 0.1 µM, partner dose 7 µM), the cell count in the test on 501Mel came out at 55.8%; in the test with A101D it was 83.4%; with A2058 it was 59.8%; in the test with A375 it was 88.8%.

For `CC(=O)O[C@@]12CO[C@@H]1C[C@H](O)[C@@]1(C)C(=O)[C@H](O)C3=C(C)[C@@H](OC(=O)[C@H](O)[C@@H](NC(=O)OC(C)(C)C)c4ccccc4)C[C@@](O)([C@@H](OC(=O)c4ccccc4)[C@H]21)C3(C)C` [Docetaxel] + CCc1ccc(CCOc2ccc(CC3SC(=O)NC3=O)cc2)nc1 [pioglitazone] (first compound 0.0005 µM, partner dose 10 µM), the cell count in the test with 501Mel came out at 39.7%; in the test with A101D it was 48.2%; in the test on A2058 it was 12.8%; with A375, 70.9%.

As for `CO[C@H]1C[C@@H]2CC[C@@H](C)[C@@](O)(O2)C(=O)C(=O)N2CCCC[C@H]2C(=O)O[C@H]([C@H](C)C[C@@H]2CC[C@@H](OCCO)[C@H](OC)C2)CC(=O)[C@H](C)/C=C(\C)[C@@H](O)[C@@H](OC)C(=O)[C@H](C)C[C@H](C)/C=C/C=C/C=C/1C` [everolimus] + CCN(CC)CCCCNc1ncc2cc(-c3cc(OC)cc(OC)c3)c(NC(=O)NC(C)(C)C)nc2n1 [PD173074] (first compound 0.1 µM, partner dose 0.5 µM), the cell count came to 69.6% in the test with 501Mel, 85.4% in the test on A101D, 68.5% in the test on A2058 and 96% in the test on A375.

As to `CC(=O)O[C@@]12CO[C@@H]1C[C@H](O)[C@@]1(C)C(=O)[C@H](O)C3=C(C)[C@@H](OC(=O)[C@H](O)[C@@H](NC(=O)OC(C)(C)C)c4ccccc4)C[C@@](O)([C@@H](OC(=O)c4ccccc4)[C@H]21)C3(C)C` [Docetaxel] + COc1ccc(COc2ccc(Cc3cnc(N)nc3N)cc2OC)cc1 [GW2580] (first compound 0.0005 µM, partner dose 5 µM), the cell count came to 41.5% in the test on 501Mel, 42.1% with A101D, 5.42% in the test with A2058 and 58.4% in the test on A375.

Consider `CO[C@H]1C[C@@H]2CC[C@@H](C)[C@@](O)(O2)C(=O)C(=O)N2CCCC[C@H]2C(=O)O[C@H]([C@H](C)C[C@@H]2CC[C@@H](OCCO)[C@H](OC)C2)CC(=O)[C@H](C)/C=C(\C)[C@@H](O)[C@@H](OC)C(=O)[C@H](C)C[C@H](C)/C=C/C=C/C=C/1C` [everolimus] + COc1ccc2c(c1)CCC1C2CCC2(C)C(NCCCCCCN3C(=O)C=CC3=O)CCC12 [U73122] (first compound 0.1 µM, partner dose 2 µM), for which the cell count in the test with 501Mel amounted to 67%; in the test on A101D it was 40%; in the test on A2058, 39.5%; in the test with A375, 76%.

For `CC(=O)O[C@@]12CO[C@@H]1C[C@H](O)[C@@]1(C)C(=O)[C@H](O)C3=C(C)[C@@H](OC(=O)[C@H](O)[C@@H](NC(=O)OC(C)(C)C)c4ccccc4)C[C@@](O)([C@@H](OC(=O)c4ccccc4)[C@H]21)C3(C)C` [Docetaxel] + CCN(CC)CCCCNc1ncc2cc(-c3cc(OC)cc(OC)c3)c(NC(=O)NC(C)(C)C)nc2n1 [PD173074] (first compound 0.0005 µM, partner dose 0.5 µM), the cell count turned out to be 44.3% in the test on 501Mel, 65.3% in the test on A101D, 8.59% with A2058 and 79% in the test with A375.

Consider `Nc1ncn([C@H]2C[C@H](O)[C@@H](CO)O2)c(=O)n1` [decitabine] + Cc1cc([N+](=O)[O-])ccc1NS(=O)(=O)c1cc(Cl)ccc1Cl [FH535] (first compound 0.5 µM, partner dose 5 µM), for which the cell count with 501Mel is 63.6%; in the test with A101D, 56.6%; with A2058, 67%; in the test with A375 it was 76.2%.

Turning to `Nc1ccn([C@@H]2O[C@H](CO)[C@@H](O)C2(F)F)c(=O)n1` [gemcitabine] + COc1ccc(COc2ccc(Cc3cnc(N)nc3N)cc2OC)cc1 [GW2580] (first compound 0.002 µM, partner dose 5 µM), the cell count in the test on 501Mel turned out to be 87%; with A101D, 88.9%; in the test with A2058 it was 71.1%; with A375, 117%.

On to `Nc1ccn([C@@H]2O[C@H](CO)[C@@H](O)C2(F)F)c(=O)n1` [gemcitabine] + COc1cc(N2CCC(N3CCN(C)CC3)CC2)ccc1Nc1ncc(Cl)c(Nc2ccccc2S(=O)(=O)C(C)C)n1 [NVP-TAE684] (first compound 0.002 µM, partner dose 0.4 µM), for which the cell count in the test on 501Mel was 78.4%; in the test on A101D, 74.1%; in the test on A2058, 39.5%; in the test on A375, 106%.

`Nc1ccn([C@@H]2O[C@H](CO)[C@@H](O)C2(F)F)c(=O)n1` [gemcitabine] + CC(C)CCN1c2nc(Nc3cc(F)c(O)c(F)c3)ncc2N(C)C(=O)C1C [BID1870] (first compound 0.002 µM, partner dose 1 µM): the cell count was found to be 65.2% in the test with 501Mel, 63.4% in the test with A101D, 56% in the test on A2058 and 108% in the test with A375.

`Nc1ccn([C@@H]2O[C@H](CO)[C@@H](O)C2(F)F)c(=O)n1` [gemcitabine] + N#Cc1c(O)c2c(-c3ccc(-c4ccccc4O)cc3)csc2[nH]c1=O [A769662] (first compound 0.002 µM, partner dose 10 µM): the cell count in the test with 501Mel was found to be 114%; in the test on A101D, 91.2%; with A2058, 59%; in the test on A375 it was 130%.

`CO[C@H]1C[C@@H]2CC[C@@H](C)[C@@](O)(O2)C(=O)C(=O)N2CCCC[C@H]2C(=O)O[C@H]([C@H](C)C[C@@H]2CC[C@@H](OCCO)[C@H](OC)C2)CC(=O)[C@H](C)/C=C(\C)[C@@H](O)[C@@H](OC)C(=O)[C@H](C)C[C@H](C)/C=C/C=C/C=C/1C` [everolimus] + O=C(Nc1ccccc1)c1cc([N+](=O)[O-])ccc1Cl [GW9662] (first compound 0.1 µM, partner dose 10 µM): the cell count stood at 56.8% with 501Mel, 75.8% with A101D, 61.4% in the test on A2058 and 118% with A375.

With `CC(=O)c1c(C)c2cnc(Nc3ccc(N4CCNCC4)cn3)nc2n(C2CCCC2)c1=O` [palbociclib] + COc1ccc2c(c1)CCC1C2CCC2(C)C(NCCCCCCN3C(=O)C=CC3=O)CCC12 [U73122] (first compound 0.2 µM, partner dose 2 µM), the cell count is 85.8% with 501Mel, 76.7% in the test with A101D, 90.9% in the test with A2058 and 56.1% in the test with A375.

On to `CC(=O)O[C@@]12CO[C@@H]1C[C@H](O)[C@@]1(C)C(=O)[C@H](O)C3=C(C)[C@@H](OC(=O)[C@H](O)[C@@H](NC(=O)OC(C)(C)C)c4ccccc4)C[C@@](O)([C@@H](OC(=O)c4ccccc4)[C@H]21)C3(C)C` [Docetaxel] + COc1cc(N2CCC(N3CCN(C)CC3)CC2)ccc1Nc1ncc(Cl)c(Nc2ccccc2S(=O)(=O)C(C)C)n1 [NVP-TAE684] (first compound 0.0005 µM, partner dose 0.4 µM), for which the cell count in the test with 501Mel was 50.7%; with A101D it was 50.6%; in the test with A2058, 8.77%; in the test on A375, 65.4%.

For the compound `CC(=O)c1c(C)c2cnc(Nc3ccc(N4CCNCC4)cn3)nc2n(C2CCCC2)c1=O` [palbociclib] + O=c1cc(-c2cccc3c2Sc2ccccc2S3)oc(N2CCOCC2)c1 [KU55933] (first compound 0.2 µM, partner dose 5 µM), the cell count in the test on 501Mel is 62.8%; in the test with A101D, 55.9%; in the test on A2058 it was 97.3%; in the test with A375, 81.7%.

For the origin of these results see the supplement of paper PMC4604168 (melanoma cell lines).
